Test results: PubChem BioAssay AID1345082 (National Center for Advancing Translational Sciences (NCATS), 2018)
In all, about 94,000 compounds went through this assay and about 4,000 (4.3%) were called active. Inconclusive results, whose numbers are uncertain, are shown with a selection of clear calls. The call rests on the fitted dose curve; in most records, active means well fitted inhibition curve with a large enough effect; inconclusive means small, poorly fitted or top-dose-only effect; inactive means no such curve, though single readings can be large or run the other way. Where the call is inconclusive, the potency comes from a doubtful curve fit.

experiment: Cytotoxic Profiling in NIH 3T3 Cell Line of Diverse Libraries Using Quantitative High-Throughput Screening; conditions: NIH 3T3 viability, CellTiter-Glo ATP luminescence, 48-72 h; series mostly up to 96.7 µM; further: nearly all actives have a fitted effect of over 55% in size
Summary of the method: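 Cytotoxicity is measured as loss of cellular ATP: NIH 3T3 cells (400/well) are exposed to compound for 48 or 72 hr at 37 °C, then CellTiter-Glo luminescence is imaged after 10 min at room temperature.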
Potency means the concentration at half of the fitted maximal effect; tags describe the fitted curve by direction and shape.

| SMILES | Potency |
| --- | --- |
| CCN1C[C@H]2CN(C)c3ccccc3[C@@H]2N(C(=O)c2ccc(C)cc2)CCC1=O | inconclusive: 28.2 µM [inhibitor, partial curve, poor fit] |
| Cc1ccc(-c2cc(N3CCCN(C(=O)c4ccccc4F)CC3)n[nH]2)cc1C | inconclusive: 39.8 µM [inhibitor, partial curve, poor fit] |
| COc1ccc2[nH]c(C(=O)N[C@H]3COC[C@H]3Cc3cc(C)no3)c(C)c2c1 | inconclusive: 56.2 µM [inhibitor, partial curve, poor fit] |
| O=C(Nc1cccc(F)c1)[C@@H]1C[C@@H](c2ccc(F)cc2)N([S+](=O)([O-])c2cccnc2)C1 | inconclusive: 44.7 µM [inhibitor, partial curve, poor fit] |
| Cn1cnc2cc(-c3ccc(CO)cc3)cc(C(=O)NCc3cccnc3)c21 | inconclusive: 79.4 µM [inhibitor, partial curve] |
| O=C([C@H]1C[C@H](Oc2ccccc2)CN1C(=O)c1cccc(F)c1)N1CCOCC1 | inconclusive: 50.1 µM [inhibitor, partial curve, poor fit] |
| Cc1ccc(CN2CCC[C@H]2c2nc(-c3ccc(OC4CCCCC4)nc3)no2)cc1 | inconclusive: 100 µM [inhibitor, partial curve] |
| O=C(NCc1cccs1)C1CCCCN1Cc1ccc(-c2cccs2)cc1 (stereo not given) | active: 28.2 µM |
| COc1cccc(CNC(=O)CN2C(=O)NC(c3ccccc3Cl)C3=C2COC3=O)c1OC (stereo not given) | inactive |
| Cc1cc2nc3n(c(=O)c2n1CC(=O)NCc1ccccc1Cl)CCCC3 | inconclusive: 22.4 µM [inhibitor, full curve] |
| COc1ccccc1CN(C)C1CCCc2ccccc21 (stereo not given) | inconclusive: 56.2 µM [inhibitor, partial curve, poor fit] |
| C=CCNC(=O)CCc1c(C)nn(-c2ccc(F)cc2)c1Oc1ccccc1OC | inconclusive: 50.1 µM [inhibitor, partial curve, poor fit] |
| CN(C)CC1(O)CCC2(CCN(S(=O)(=O)c3ccc(F)cc3)CC2)CC1 | inactive |
| Cn1ncc2c(C(=O)NCc3ccc(F)c(F)c3)cc(C(C)(C)C)nc21 | inconclusive: 35.5 µM [inhibitor, full curve] |
| COc1cccc(NC(=O)c2cnc3c(c2)N(C(=O)Cc2cn(C)c4ccccc24)CCC3)c1 | inconclusive: 31.6 µM [inhibitor, full curve] |
| O=C(Cc1ccc(F)cc1)Nc1cc(-c2cccnc2)nn1-c1ccccc1 | inconclusive: 50.1 µM [inhibitor, partial curve, poor fit] |
| COc1cccc(CN2CCc3nc(N4CCOCC4)[nH]c(=O)c3CC2)c1OC | inactive |
| CC(C)(C)c1ccc(C(=O)N2CCOCC(O)(CN3CCCC3)C2)cc1 (stereo not given) | inactive |
| COc1ccc(S(=O)(=O)N2CCC(OC3CCN(C)CC3)CC2)cc1 | inactive |
| CCCNc1cc(N2CCC(CCC(=O)NCC3CC3)CC2)ncn1 | inactive |

| SMILES | Potency |
| --- | --- |
| COc1ccc(-c2nc(CN3CC[C@H]4CC[C@@H](C3)N4)c(C)o2)c(OC)c1C | inconclusive: 79.4 µM [inhibitor, partial curve, poor fit] |
| COC(=O)c1ccc2nc(C[C@@H]3C[C@@H](C(C)C)[C@H](CNC4CCN(C)CC4)C=C3C)[nH]c2c1 | active: 25.1 µM |
| O=C1CO[C@H]2CN(c3ncccn3)C[C@H]2N1Cc1ccncc1 | inactive |
| Cc1ccccc1-c1cc(C(=O)NCCN2CCNC2=O)c2c(c1)N(C)CCO2 | inconclusive: 112 µM [inhibitor, single point] |
| O=C(CCc1nc(C2CC(=O)N(C3CCCCC3)C2)no1)c1ccc(Cl)cc1 (stereo not given) | inconclusive: 44.7 µM [inhibitor, partial curve, poor fit] |
| CCN1C(=O)CCN(Cc2cccc(C)c2)CC12CCOCC2 | inactive |
| O=C(NCCCc1ccccc1)C1CCCN(Cc2cccc(-c3ccc(F)cc3F)c2)C1 (stereo not given) | inconclusive: 50.1 µM [inhibitor, partial curve, poor fit] |
| COc1ccc(CN2Cc3[nH]cnc3C[C@H]2C(=O)N2CCC(Cc3ccccc3)CC2)cc1 | active: 17.8 µM |
| Cc1ccc(-c2nnc3ccc(NC(C)C)nn23)nc1 | inconclusive: 44.7 µM [inhibitor, partial curve, poor fit] |
| COC(=O)NC1CCCN(c2ccc3nnc(C4CC4)n3n2)C1 (stereo not given) | inactive |
| O=C(CNC(=O)c1cccc(-c2ccsc2)c1)NCc1ccccc1Cl | inconclusive: 14.1 µM [inhibitor, full curve, poor fit] |
| CC(C)Oc1ccc(CN2CCC(CO)(Cc3ccccc3Cl)CC2)cc1CO | active: 25.1 µM |
| Cc1nn2c(c1-c1ccccc1Oc1ccccc1)N(Cc1ccccc1O)CCC2 | active: 11.2 µM |
| O=C(C1CCCC1)N1CCCC(c2noc(COc3ccccc3F)n2)C1 (stereo not given) | inconclusive: 50.1 µM [inhibitor, partial curve, poor fit] |
| CC(C)(Oc1nn(CCOc2ccccc2)c2ccccc12)C(=O)NCc1cnccn1 | inconclusive: 79.4 µM [inhibitor, partial curve, poor fit] |
| O=C(NC1CCN(c2cc(-c3ccc(Cl)cc3)[nH]n2)C1)c1ccc(Br)cc1 (stereo not given) | inconclusive: 44.7 µM [inhibitor, partial curve, poor fit] |
| Cc1cc(C)cc(-c2ccc(CN3C4CCC3CN(C(=O)c3ccncc3)C4)cc2)c1 | inconclusive: 44.7 µM [inhibitor, partial curve, poor fit] |
| Cc1cc(Cl)ccc1S(=O)(=O)N1CC(c2noc(-c3cccnc3)n2)C1 | inconclusive: 44.7 µM [inhibitor, partial curve, poor fit] |
| N#Cc1ccc(OCC2CN(Cc3c[nH]c4ccccc34)C(=O)c3c(ccnc3-c3ccc(OCC(=O)O)cc3)O2)cc1 (stereo not given) | inconclusive: 50.1 µM [inhibitor, partial curve, poor fit] |
| COc1cccc(-c2ccc(CN3CCCC3C(=O)NCc3ccc4c(c3)OCO4)cc2)c1 (stereo not given) | inconclusive: 31.6 µM [inhibitor, full curve, poor fit] |
